Hit rate of the full screen: of about 110,000 compounds, about 230 (0.21%) showed an effect of 50% or more. Some of the results follow.
What follows are molecules tested against DPAP1 (Plasmodium falciparum, UniProt Q8IIJ9) (assay: primary screen, percent inhibition; read by cleavage of a fluorogenic dipeptide substrate; higher = more effect of the substance).
Parameters: species or system P. falciparum D10 trophozoite lysates; single well
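Note: 30 min substrate incubation versus DMSO and 10 µM JCP410 controls.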

DPAP1, sequence (Q8IIJ9 whole entry, looked up): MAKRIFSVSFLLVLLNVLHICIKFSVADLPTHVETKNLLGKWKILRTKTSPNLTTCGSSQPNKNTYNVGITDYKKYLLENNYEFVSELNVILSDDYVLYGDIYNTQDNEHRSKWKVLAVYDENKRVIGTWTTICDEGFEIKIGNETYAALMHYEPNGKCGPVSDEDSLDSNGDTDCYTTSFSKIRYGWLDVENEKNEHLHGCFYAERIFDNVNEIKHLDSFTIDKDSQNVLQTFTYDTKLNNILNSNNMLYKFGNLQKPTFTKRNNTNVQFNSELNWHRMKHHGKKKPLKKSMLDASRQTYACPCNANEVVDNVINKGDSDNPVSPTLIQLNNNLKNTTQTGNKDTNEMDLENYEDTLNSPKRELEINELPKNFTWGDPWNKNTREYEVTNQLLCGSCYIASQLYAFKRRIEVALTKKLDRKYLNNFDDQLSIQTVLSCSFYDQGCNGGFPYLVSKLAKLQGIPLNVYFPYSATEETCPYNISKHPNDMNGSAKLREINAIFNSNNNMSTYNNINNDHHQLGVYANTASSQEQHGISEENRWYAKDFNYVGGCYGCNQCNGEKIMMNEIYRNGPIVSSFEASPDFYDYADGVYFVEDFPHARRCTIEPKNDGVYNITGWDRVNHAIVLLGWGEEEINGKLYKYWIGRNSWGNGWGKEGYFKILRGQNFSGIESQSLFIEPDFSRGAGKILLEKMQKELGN

Point of comparison: `O=C(C(c1ccccc1)c1ccccc1)N1CCOCC1`, “% Inhibition @ 10 uM” value 0.878%. Against it:
- O=C(NCc1cccnc1)c1cccc(COc2cccc3ccccc23)c1 — higher, 3.72%
- Cc1cccnc1NC(=O)c1ccccc1C(=O)O — lower, -6.6%
- CCN(C(=O)COc1cc(C)ccc1C)c1ccccc1 — higher, 16.2%
- O=C(CN1C(=O)S/C(=C\c2cc3c(cc2Cl)OCO3)C1=O)N1CCOCC1 — higher, 12.2%
- O=C(Nc1ccc(Br)cn1)c1cccc2c1-c1ccccc1C2=O — lower, -1.72%
- COC(=O)/C(C#N)=C/c1ccc(OC)c(OC)c1OC — lower, -5.64%
- CC(=O)Nc1ccc(S(=O)(=O)Nc2ccc(-c3cn4cccnc4n3)cc2)cc1 — lower, -1.63%
- O=C(Nc1ccc([N+](=O)[O-])cc1Cl)c1ccc([N+](=O)[O-])cc1 — lower, -0.771%
- CNS(=O)(=O)c1cn(CC(=O)Nc2cccc(C)n2)cc1S(=O)(=O)NC — higher, 1.91%
- CCOC(=O)C1CCN(CC2CC3C=CC2C3)CC1 (centres unmarked) — lower, -5.65%
- CCC(Oc1ccccc1)C(=O)Nc1ccccc1Cl (centres unmarked) — lower, -7.08%
- Cc1ccc2nc(NCc3ccc(C(=O)O)cc3)c3nnnn3c2c1 — higher, 1.86%
- Cc1onc(-c2ccccc2)c1C(=O)N1CCCN(C(=O)c2c(-c3ccccc3)noc2C)CC1 — lower, 0.83%
- O=C(CCc1nnc2ccc(N3CCOCC3)nn12)NCc1ccccc1Cl — lower, -8.38%
- Cc1ccc(O)c2nc(/C=C/c3ccccc3[N+](=O)[O-])ccc12 — lower, -4.96%
- COc1ccc(C2(O)C(C)CCCC2C)cc1 (centres unmarked) — lower, -6.58%
- CC(C)C[C@H](NC(=O)c1ccc(-c2cnc(N=C(N)N)s2)cc1)C(=O)N[C@@H](Cc1cccnc1)C(N)=O — higher, 3.19%
- Cn1ncc2c(NCCc3ccccc3)ncnc21 — lower, -0.247%
- Cc1ccc(OCCCCCCN2CCNCC2)cc1 — lower, -5.54%
- Cc1csc(NC(=O)CCc2c(C)nc3cc(-c4ccc(Cl)cc4)nn3c2C)n1 — higher, 4.54%
- O=C(/C=C/c1ccc2c(c1)OCO2)c1ccccn1 — lower, -1.77%
- CCOC(=O)C1=C(Cn2cnc3ccccc32)NC(=O)NC1c1cc(C)ccc1C (centres unmarked) — higher, 3.36%
- CCCO/C(O)=C1/C(C)=NC2=C(C(=O)CC(C)(C)C2)C1c1ccc(SC)cc1 (centres unmarked) — lower, -1.32%
- O=C(CSc1nc2ccccc2[nH]1)Nc1ccccn1 — higher, 1.42%
- O=C(Nc1ccc2ccccc2c1)c1ccc([N+](=O)[O-])cc1Cl — lower, -4.87%
- CCNC(=O)/C(=C\c1ccco1)NC(=O)c1cccc(Br)c1 — higher, 2.51%
- Cc1ccc(NC(=O)NCc2noc3ccccc23)nc1 — lower, -3.48%
- NS(=O)(=O)c1ccc(CCNC(=O)CCCCCNc2nc(S)nc3ccccc23)cc1 — higher, 1.09%
- CC(C)CNc1nc(Oc2ccc(OCC(N)=O)nn2)nc(N(C)C)n1 — lower, -4.91%
- Cc1cc2nc3s/c(=C/c4ccccc4F)c(=O)n3c2cc1C — higher, 6.66%
- O=S1(=O)CC2(N3CCOCC3)CCCC21 (centres unmarked) — lower, -1.85%
- NS(=O)(=O)c1ccc(CCNC2CC(=O)N(c3ccc(OC(F)(F)F)cc3)C2=O)cc1 (centres unmarked) — lower, -21.3%
- Cc1ccc2nc(/N=C(\N)NC(=O)c3ccccc3)nc(C)c2c1 — higher, 7.1%
- O=C(c1cccc(F)c1)N1CCN(C(=O)c2ccco2)CC1 — lower, -2.89%
- O=C(Nc1cccc(C(F)(F)F)c1)[C@@H]1C2C=CC(C2)[C@@H]1C(=O)O (some centres unmarked) — lower, -1.45%
- Cn1c(SCC(=O)N2CCOCC2)nc2sc3c(c2c1=O)CCCC3 — lower, -0.0959%
- COc1ccc(C(=O)CC(Sc2ccccc2N)c2cccc(Br)c2)cc1 (centres unmarked) — lower, -1.29%
- COc1ccc(/C=C2\SC(N3CCN(Cc4ccccc4)CC3)=NC2=O)cc1 — lower, -3.49%
- Cc1nc2nc(NCc3ccc(F)cc3)nn2c(O)c1C — higher, 4.18%
- COc1cc(Br)cc2cc(S(=O)(=O)c3ccc(C(C)(C)C)cc3)c(=O)oc12 — lower, -4.97%
- Cc1ccc(-n2nc3c(=O)n(C(C)C(=O)NCc4cccc(Cl)c4)nc(C)c3c2C)cc1 (centres unmarked) — higher, 2.82%
- COCc1cc(C2SCC(=O)Nc3c2c(C)nn3C2CCOC(C)(C)C2)ccc1OC (centres unmarked) — higher, 2.89%
- CC1CC(Nc2ccccc2)c2ccccc2N1C(=O)c1ccccc1Br (centres unmarked) — lower, -2.32%
- CCOc1ccc(-c2csc3nc(-c4ccccc4OC)oc(=O)c23)cc1 — lower, 0.275%
- COc1ccc(S(=O)(=O)NCc2ccc(C)cc2)cc1 — lower, -1.5%
- O=C(c1ccc(Cl)cc1Cl)N1CCN(c2ccc(F)cc2)CC1 — lower, 0.135%
- CCC1C(=O)N=C(SCC(=O)NCc2ccccc2)NC1=O (centres unmarked) — lower, -4.11%
- COc1ccc(CNC(=S)c2ccccc2)cc1OC — higher, 3.8%
- O=[N+]([O-])c1ccc(N2CCN(c3ccccc3)CC2)c2ncccc12 — higher, 4.47%
